# Measured values: PubChem BioAssay AID624417 (National Center for Advancing Translational Sciences (NCATS), 2012)
# “And” between values parts separate entries of the source, which are not always exact repeats. Equal values may be shown once. Among all 410,000 compounds or so, about 6,400 (1.6%) were called active. This list was built around the results that the source calls inconclusive (neither active nor inactive); the mix of calls is not that of the screen. Calls follow the shape of the dose curve; as a rule, active = well fitted inhibition curve with a large enough effect; inconclusive = small, poorly fitted or top-dose-only effect; inactive = no such curve, though single readings can be large or run the other way. Where the call is inconclusive, the potency comes from a doubtful curve fit.
# Target: Glucagon-like peptide 1 receptor (Homo sapiens) (UniProt P43220)
# Sequence of UniProt P43220 (P43220 whole entry, looked up): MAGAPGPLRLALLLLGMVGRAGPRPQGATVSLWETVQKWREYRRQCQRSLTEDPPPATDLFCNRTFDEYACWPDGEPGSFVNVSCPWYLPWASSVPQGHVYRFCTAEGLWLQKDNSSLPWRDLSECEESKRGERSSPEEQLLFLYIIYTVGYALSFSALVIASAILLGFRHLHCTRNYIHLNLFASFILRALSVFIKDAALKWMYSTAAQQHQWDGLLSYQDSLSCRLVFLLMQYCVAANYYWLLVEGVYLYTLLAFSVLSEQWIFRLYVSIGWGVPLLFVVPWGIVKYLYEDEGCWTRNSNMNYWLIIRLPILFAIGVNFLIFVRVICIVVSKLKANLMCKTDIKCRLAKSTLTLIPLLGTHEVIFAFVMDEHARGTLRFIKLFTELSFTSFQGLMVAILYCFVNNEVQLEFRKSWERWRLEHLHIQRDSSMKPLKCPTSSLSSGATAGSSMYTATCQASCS
# Assay: qHTS of GLP-1 Receptor Inverse Agonists (Inhibition Mode); also: nearly all actives have a fitted effect of over 55% in size
# Settings: HEK293 GLP-1R CRE-luciferase, luminescence, 24 h, GLP-1R form is constitutively active; activity change, negative = inhibition: at 38.3 µM (top of the series) unless noted
# Procedure, shortened: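 Assay principle: reduced luminescence from a cAMP-responsive reporter in HEK293 cells co-expressing a constitutively active GLP-1R. Conditions: 24 hr compound incubation, 37 deg C, 5% CO2.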
# % is scaled to controls: 0 for no effect and ±100 for the full control effect; potency is read from the fitted curve at half-maximal effect; tags tell the direction and shape of the fitted curve.
SMILES,"activity change, negative = inhibition",Potency
O=C(NCc1cccnc1)c1ccc(COc2ccc3c(c2)CCC3)o1,inactive: -24%,–
COCCNC(=O)C(=O)Nc1ccc2nc3n(c(=O)c2c1)CCCCC3,inactive: -5.16%,–
CC1(C)C(=O)Nc2ccccc2N1C(=O)COC(=O)c1ccc(Cl)c(S(=O)(=O)NCc2ccccc2)c1,–,"inconclusive: 28.2 µM [inhibitor, single point]"
CCC(C)(C)n1nnnc1C(c1ccc(C)cc1)N1CCC(C)CC1 (stereo not given),–,"inconclusive: 20 µM [inhibitor, single point]"
O=C(COc1ccccc1F)NC12CC3CC(CC(C3)C1)C2,–,"inconclusive: 7.94 µM [inhibitor, partial curve, poor fit]"
Cc1cc(C(=O)N/N=C/c2cc(Cl)cc([N+](=O)[O-])c2O)c2ccccc2n1,–,"inconclusive: 10 µM [inhibitor, single point]"
Cc1cccc(NC(=O)CN2CCN(C(=O)CNC(=O)c3ccc(-c4ccccc4)cc3)CC2)c1C,–,"inconclusive: 6.31 µM [inhibitor, partial curve, poor fit]"
CCOC(=O)c1ccc(Nc2nc(=O)c3cccnc3s2)cc1,inactive: 7.04%,–
COCCNC(=O)Cn1cc(/C=C(\C#N)C(=O)NC2CCCC2)c2ccccc21,inactive: 14%,–
CC(=O)c1cccc(NC(=O)c2ccc3c(c2)CCN3S(=O)(=O)c2ccccc2)c1,–,"inconclusive: 10 µM [inhibitor, partial curve, poor fit] and inconclusive: 8.91 µM [inhibitor, partial curve, poor fit]"
Cc1ccc(NC(=O)Cc2nnc(SCC(=O)c3ccc(Br)cc3)n2C)cc1,–,"inconclusive: 12.6 µM [inhibitor, single point]"
CC1CCCC(NC(=O)CCNC(=O)c2ccc(Br)cc2)C1C (stereo not given),–,"inconclusive: 10 µM [inhibitor, partial curve, poor fit]"
Cc1ccc2c(c1)N(CC(=O)NCc1cccc(Cl)c1)C(=O)c1cccnc1O2,–,"inconclusive: 28.2 µM [inhibitor, single point]"
O=C(Nc1cccc(Cl)c1)Nc1ccccc1NS(=O)(=O)c1cccs1,–,"inconclusive: 22.4 µM [inhibitor, single point]"
c1ccc(-c2nc3c4ccccc4ccn3c2CN2CCCCC2)cc1,–,"inconclusive: 8.91 µM [inhibitor, partial curve]"
Cc1ccc(C2=NN(Cc3nnc(-c4ccccc4)o3)C(=O)SC2)cc1,–,"inconclusive: 14.1 µM [inhibitor, single point]"
COc1ccccc1Cn1c(CNS(=O)(=O)c2c(C)cc(C)cc2C)nc2cccnc21,inactive: -12.5%,–
O=S(=O)(c1ccc(Cl)cc1)N1CCN(CCc2ccncc2)CC1,–,"inconclusive: 35.5 µM [inhibitor, partial curve, poor fit]"
CCOCCn1ccc2c(OCC(=O)Nc3cc(C(F)(F)F)ccc3Cl)cccc2c1=O,inactive: 8.18%,–
Cc1ccc(OS(=O)(=O)c2ccc(-c3csc(C)n3)s2)c(C)c1,–,"inconclusive: 12.6 µM [inhibitor, single point]"
O=C(Nc1ccon1)c1sc2cc(F)ccc2c1Cl,inactive: 69.3%,–
CN1CCCN(S(=O)(=O)c2ccc3ccccc3c2)CC1,–,"inconclusive: 28.2 µM [inhibitor, single point]"

SMILES,"activity change, negative = inhibition",Potency
CSc1ccc(Nc2nn(-c3ccc(OC(F)(F)F)cc3)nc2C(C)=O)cc1,inactive: 5.56%,–
COc1ccc(CN(C)CC(=O)NC(=O)Nc2ccccc2F)cc1,–,"inconclusive: 20 µM [inhibitor, single point]"
CC(C)OC(=O)CC(NC(=O)OC(C)(C)C)c1ccccc1 (stereo not given),–,"inconclusive: 11.2 µM [inhibitor, single point]"
O/N=C/c1ccc2cccc(O)c2n1,–,"inconclusive: 11.2 µM [inhibitor, partial curve, poor fit]"
O=C(Cc1ccccc1)Nc1ccc2c(c1)CCC2,–,"inconclusive: 28.2 µM [inhibitor, single point]"
CC1(C)Cc2ccccc2C(C(=O)c2ccccc2)=N1,–,"inconclusive: 31.6 µM [inhibitor, single point]"
Nc1cc2c(cc1Br)[nH]c(=O)c1ccccc12,–,"inconclusive: 28.2 µM [inhibitor, single point]"
O=C(CN1CCN(Cc2ccc(Cl)cc2)CC1)N/N=C/c1c[nH]c2ccccc12,–,"inconclusive: 31.6 µM [inhibitor, single point]"
CC1(CC(=O)Nc2ccccc2)NC(=S)N(c2ccccc2)N1 (stereo not given),inactive: 3.24%,–
CCOC(=O)c1cccc(NC(=O)CCc2c(C)nc3c4cccnc4nn3c2C)c1,inactive: 5.45%,–
COc1ccc(NC(=O)C2CCN(S(=O)(=O)c3ccc4c(c3)NC(=O)C(C)S4)CC2)cc1 (stereo not given),–,"inconclusive: 28.2 µM [inhibitor, single point]"
O=c1c2ccccc2nc(/C=C/c2ccccc2)n1CCc1ccccc1,inactive: 0.12%,–
c1ccc(-c2nnn(C34CC5CC(CC(C5)C3)C4)n2)cc1,–,"inconclusive: 14.1 µM [inhibitor, single point]"
COc1cccc(N/C=C/c2onc(C)c2[N+](=O)[O-])c1,inactive: 9.79%,–
CC(C)C[C@@H](CO)N(Cc1ccccc1)S(=O)(=O)N(Cc1ccccc1)[C@@H](CO)CC(C)C,–,active: 2.51 µM
Oc1c(Br)cc(Br)cc1/C=N/n1c(-c2ccccc2)n[nH]c1=S,–,"inconclusive: 28.2 µM [inhibitor, single point]"
Cc1cccc(NC(=O)C(c2ccccc2Cl)N2CCOCC2)c1 (stereo not given),–,"inconclusive: 31.6 µM [inhibitor, single point]"
Cc1cccc(N2CCN(C(=O)Cn3nc(C)c4sc5ccccc5c4c3=O)CC2C)c1 (stereo not given),inactive: 2.98%,–
O=C(NCc1ccco1)c1cc(S(=O)(=O)N2CCCCC2)ccc1Cl,–,"inconclusive: 7.94 µM [inhibitor, partial curve, poor fit]"
O=C(C1=C[C@H](C2CCCCC2)C[C@H](OCCCCO)O1)N1CCN(Cc2ccc3c(c2)OCO3)CC1,–,"inconclusive: 28.2 µM [inhibitor, single point]"
C=Cc1ccc(C(=O)NC2CCCN(Cc3ccccc3F)C2)cc1 (stereo not given),–,"inconclusive: 11.2 µM [inhibitor, single point]"
CCOC(=O)c1c(CSc2ccc(C)cc2)n(C)c2cc(Br)c(O)c(CN(C)C)c12,–,"inconclusive: 11.2 µM [inhibitor, single point]"

SMILES,"activity change, negative = inhibition",Potency
Cc1ccc(C)c(-n2c(SCC(=O)Nc3nonc3C)nnc2-c2ccoc2C)c1,–,"inconclusive: 7.94 µM [inhibitor, partial curve, poor fit]"
CC1(C)C(C=C(Cl)Cl)C1C(=O)N/N=C/c1ccccc1F (stereo not given),–,"inconclusive: 11.2 µM [inhibitor, single point]"
CC12CC3CC(C)(C1)CC(C(=O)N1CCCC1)(C3)C2,–,"inconclusive: 11.2 µM [inhibitor, partial curve, poor fit]"
COc1cccc(CNC(=O)c2csc3c2CCCC3)c1,–,"inconclusive: 28.2 µM [inhibitor, single point]"
CCOC(=O)Nc1ccc2c(c1)N(C(=O)CCN1CCOCC1)c1ccccc1S2,–,inactive
COc1cc(NC(=O)c2ccc(C)cc2)c(OC)cc1NC(=O)CN1CCCCC1,–,"inconclusive: 0.891 µM [inhibitor, full curve, poor fit]"
CN(C)/C=C/c1onc(-c2c(F)cccc2Cl)c1C#N,–,"inconclusive: 12.6 µM [inhibitor, single point]"
CC1CN(C(=S)Nc2ccc(Br)cc2)CC(C)O1 (stereo not given),–,"inconclusive: 0.891 µM [inhibitor, full curve, poor fit]"
CC(C)CC(=O)Nc1ccc(-c2nc3ccccc3c(=O)[nH]2)cc1,–,"inconclusive: 7.94 µM [inhibitor, partial curve, poor fit]"
Cc1ccc(S(=O)(=O)N2CCC(C(=O)Nc3cc(C(F)(F)F)ccc3N3CCOCC3)CC2)cc1C,–,active: 12.6 µM
CCCCC(=O)NC(c1ccc([N+](=O)[O-])cc1)c1c(O)ccc2ccccc12 (stereo not given),–,"inconclusive: 2.82 µM [inhibitor, partial curve, poor fit]"
O=C1[C@H](Cc2ccccc2)NCCCC[C@@H](c2ccc(Cl)cc2)N1Cc1ccccc1,–,"inconclusive: 11.2 µM [inhibitor, single point]"
COc1ccc(Cl)cc1CN1CCN(c2nc(C)cc(C)c2C#N)CC1,–,"inconclusive: 11.2 µM [inhibitor, partial curve, poor fit]"
NC(c1ccccc1)c1csc(NC(=O)NCC2CCCCC2)n1 (stereo not given),–,"inconclusive: 14.1 µM [inhibitor, single point]"
Cc1ccc(C(=O)CC(=O)c2ccc(C)cc2O)cc1,inactive: 12.3%,–
CCC(=O)Nc1ccccc1Sc1ncnc2scc(-c3ccccc3)c12,–,"inconclusive: 28.2 µM [inhibitor, single point]"
O=C(CCCN1C(=O)/C(=C/c2ccccc2)SC1=S)Nc1ccc(O)cc1,–,"inconclusive: 10 µM [inhibitor, partial curve, poor fit]"
CCOC(=O)C1(CCOc2ccccc2)CCN(Cc2cccn2-c2ncccn2)CC1,–,"inconclusive: 22.4 µM [inhibitor, single point]"
CN(C(=O)CSc1nc2ccc(NC(=O)c3ccc(F)cc3)cc2s1)c1ccccc1,–,"inconclusive: 31.6 µM [inhibitor, single point]"
O=C(Nc1ccccn1)C1(c2ccccc2)CCCC1,–,"inconclusive: 7.94 µM [inhibitor, partial curve, poor fit]"
Cc1cnccc1CN(C)Cc1nc(Cc2ccccc2Cl)no1,–,"inconclusive: 10 µM [inhibitor, partial curve, poor fit]"
